# In PubChem BioAssay AID902 (National Center for Advancing Translational Sciences (NCATS), 2007):
# Out of some 130,000 compounds screened, about 1,900 (1.5%) were called active. The shares of active, inactive and inconclusive entries below differ from those in the screen. The call rests on the fitted dose curve; in most records, active means well fitted cell-killing curve with a large enough effect; inconclusive means small, poorly fitted or top-dose-only effect; inactive means no such curve, though single readings can be large or run the other way. Potencies beside an inconclusive call are fits to weak or partial responses and may not hold up.
# Test: qHTS Screen for Compounds that Selectively Target Cancer Cells with p53 Mutations: Cytotoxicity of p53ts Cells at the Nonpermissive Temperature; further: nearly all actives have a fitted effect of over 55% in size
# Conditions: H1299-p53A138V viability at 39C, ATP luminescence, 24 h; activity change, negative = cell killing: at 46.1 µM (top of the series)
# On the % scale 0 is the no-effect control and ±100 the full control effect; potency means the concentration at half of the fitted maximal effect; tags describe the fitted curve by direction and shape.
Structure (SMILES),Potency,"activity change, negative = cell killing"
CC1CCCCN1CC(=O)N1CCCc2c1c(=O)oc1ccc(OCc3ccccc3)cc21 (stereo not given),"inconclusive: 31.6 µM [cytotoxic, single point]",
O=C(Nc1cccnc1)c1noc2c1CCCCC2,active: 12.6 µM,
COc1ccccc1C(=O)Nc1ccc(-c2nc3ccccc3s2)c(C)c1,"inconclusive: 10 µM [cytotoxic, single point]",
COc1ccc(-c2nc3ccccc3n2Cc2ccc(Cl)cc2)cc1,,inactive: 37.8%
C[N+](C)(N)CCC[N+](C)(C)N,,inactive: -1.91% [at 9.22 µM]
COc1ccc(CNc2cc(C)nc3ncnn23)c(OC)c1,,inactive: -12.6%
COc1ccccc1C(=O)Nc1nnc(S(=O)(=O)N2CCCCCC2)s1,"inconclusive: 31.6 µM [cytotoxic, single point]",
CC(=O)Nc1cccc(NC(=O)c2ccco2)c1,,inactive: -10.1%
CCc1ccc(-c2nnn(Cc3nn[nH]n3)n2)cc1,"inconclusive: 12.6 µM [cytotoxic, single point]",
CCCCN(CC)C(=O)Nc1ccc2c(c1)N(C)C(=O)c1ccccc1S2,active: 25.1 µM,
COc1ccc(C(=O)N2CCc3cc(OC)c(OC)cc3C2COc2ccccc2OC)cc1 (stereo not given),"inconclusive: 5.01 µM [cytotoxic, partial curve]",
CCOC(=O)c1sc(SCC(=O)Nc2ccc(N(C)C)cc2)nc1N,"inconclusive: 7.94 µM [cytotoxic, partial curve]",
COc1ccc(OC)c(NC(=O)c2cc3sccc3n2C)c1,,inactive: -13.3%
COc1ccc(Br)cc1CNC(=O)CN1CCSc2ccccc21,"inconclusive: 0.01 µM [cytotoxic, full curve, poor fit]",
O=C(Nc1ccc(Cl)c(Cl)c1)N1CCC(c2ccccc2)C1 (stereo not given),"inconclusive: 10 µM [cytotoxic, partial curve]",
Cc1cccn2c(=O)cc(COc3cccc(NC(=O)c4ccccc4F)c3)nc12,active: 7.94 µM,
O=C(NCc1ccccc1)c1cccc(COc2cc(Cl)ccc2Cl)c1,"inconclusive: 35.5 µM [cytotoxic, single point]",
Cc1ccc2oc(-c3ccc(Cl)c(NC(=O)c4ccc(-c5ccccc5[N+](=O)[O-])o4)c3)nc2c1,,inactive: 11.6%
CC(C)CO/N=C1/C[C@@H](O)[C@@H](O)[C@@H]2[C@@H]3C(=O)N(c4cccc(Oc5ccccc5)c4)C(=O)[C@H]3CC[C@H]12,,inactive: 1.56% [at 9.22 µM]
CCCN1CCCc2cc(CN(CCCN3CCOCC3)C(=O)Nc3ccc(CC)cc3)ccc21,"inconclusive: 20 µM [cytotoxic, single point]",
COc1cccc(C2=NOC(C(=O)NCc3ccc(F)cc3)C2)c1 (stereo not given),,inactive: -22.7%
CCCCn1c(=O)c2oc3ccccc3c2n(CC(=O)Nc2cccc(Cl)c2)c1=O,"inconclusive: 31.6 µM [cytotoxic, single point]",
COc1cc2c(cc1OC)n(CC(=O)c1ccc(F)cc1)c(=O)n1nc(CCn3nc(C)cc3C)nc21,"inconclusive: 7.94 µM [cytotoxic, partial curve, poor fit]",

Structure (SMILES),Potency,"activity change, negative = cell killing"
O=c1c(-c2ccccc2)nc2cnc(N3CCNCC3)nc2n1Cc1cccs1,"inconclusive: 15.8 µM [cytotoxic, single point]",
Clc1ccccc1C(Nc1ncccn1)Nc1ncccn1,,inactive: 11.8% [at 9.22 µM]
CCCCN(CCCC)c1ncnc2c1cnn2-c1cccc(C)c1,,inactive: -3.96%
Cc1ccc(S(=O)(=O)NCC(=O)N(CCc2ccccc2)CC(=O)NCc2ccco2)cc1,"inconclusive: 15.8 µM [cytotoxic, single point]",
N#Cc1cccc(-c2nc(Nc3ccccc3)c3ccccc3n2)c1,"inconclusive: 31.6 µM [cytotoxic, single point]",
Cc1ccc2c(CN3CCN(Cc4ccccc4Cl)CC3)cc(=O)oc2c1,"inconclusive: 12.6 µM [cytotoxic, partial curve]",
CCCN1CCN(CCCNC(=O)c2cc3c(Cl)nc4ccccc4c3s2)CC1,"inconclusive: 15.8 µM [cytotoxic, partial curve]",
CC1Oc2ccccc2C=C1/C=N/NC(=O)c1ccccc1O (stereo not given),"inconclusive: 2 µM [cytotoxic, partial curve]",
OC[C@H]1O[C@@H](n2cnc3cncnc32)[C@H](O)[C@@H]1O,active: 10 µM,
COCCCN(Cc1ccco1)C(=O)c1cc2c(s1)-c1ccccc1OC2,"inconclusive: 12.6 µM [cytotoxic, partial curve]",
FC(F)(F)c1cccc(-n2cc(-c3ccccc3)c3c(N4CCCCC4)ncnc32)c1,,inactive: -23.7%
CCc1ccccc1NC(=O)CN1C(=O)CCn2nc(-c3cccn3C)cc21,"inconclusive: 3.98 µM [cytotoxic, single point]",
Cc1ccc(-c2c(CN3CCN(c4cc(C)ccc4C)CC3)csc2C)cc1,"inconclusive: 1.58 µM [cytotoxic, partial curve, poor fit]",
CC1=C(c2ccc(C(C)C)cc2)S(=O)(=O)N=C1N1CCC(C(=O)Nc2ccc(C)cc2)CC1,active: 12.6 µM,
CN1CCCC2(CCN(S(=O)(=O)c3ccccc3)CC2)C1,,inactive: 3.88%
Cn1c(=O)[nH]c(=O)c2c1nc(Br)n2CCCSc1nc2ccccc2o1,,inactive: -18.6%
O=C(Nc1onc2c1CCCC2)c1ccccc1,"inconclusive: 7.94 µM [cytotoxic, partial curve]",
O=C(CC1CC2CCC1C2)NCc1cccs1 (stereo not given),,inactive: 2.53%
COc1ccc(-n2nc(C(=O)NCCc3ccc(OC)c(OC)c3)c3c4ccccc4n(C)c3c2=O)cc1,"inconclusive: 14.1 µM [cytotoxic, partial curve, poor fit]",
N=c1n(Cc2ccccc2)c2ccccc2n1CC(O)COc1ccccc1 (stereo not given),,inactive: -11.9%
COc1ccccc1CNC(=O)CCn1c(=O)c2ccccc2n(CC(=O)Nc2cc(Cl)ccc2C)c1=O,"inconclusive: 3.98 µM [cytotoxic, full curve]",
CCOC(=O)c1ccc(N2C(=O)c3[nH]nc(-c4ccc(OC)cc4)c3C2c2cccc(O)c2)cc1 (stereo not given),"inconclusive: 10 µM [cytotoxic, partial curve]",
